In PubChem BioAssay AID1794842 (National Center for Advancing Translational Sciences (NCATS), 2023) one finds activity change, negative = inhibition data, which are given here for 61 compounds.

Fewer than 10 of roughly 2,800 compounds were called active. The call rests on the fitted dose curve; in most records, active means well fitted curve in the direction sought with a large enough effect; inconclusive means small, poorly fitted or top-dose-only effect, or another doubt; inactive means no such curve, though single readings can be large or run the other way. This is one part of the list.

This assay deals with Metallo-beta-lactamase type 2 (Klebsiella pneumoniae) (UniProt C7C422). The experiment in a line: qHTS to identify inhibitors of the New Delhi Metallo-beta-lactamase (NDM): Meropenem screen against the machine-based learning selections. Further: % of control where 0% means no effect. The note with it: Purified NDM-1, meropenem hydrolysis, absorbance 300 nm; at 57.5 µM (top of the series) unless noted. The procedure, abridged: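 NDM-1 (2 nM final) in 50 mM HEPES pH 7.0, 1 uM Zn2SO4, 0.01% Tween20 was preincubated with compounds for >30 min. Nitrocefin (16.7 uM final) was read at 485 nm after 15 min, and meropenem (50 uM final) at 300 nm after 30 min.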
Sequence of UniProt C7C422 (C7C422 whole entry, looked up): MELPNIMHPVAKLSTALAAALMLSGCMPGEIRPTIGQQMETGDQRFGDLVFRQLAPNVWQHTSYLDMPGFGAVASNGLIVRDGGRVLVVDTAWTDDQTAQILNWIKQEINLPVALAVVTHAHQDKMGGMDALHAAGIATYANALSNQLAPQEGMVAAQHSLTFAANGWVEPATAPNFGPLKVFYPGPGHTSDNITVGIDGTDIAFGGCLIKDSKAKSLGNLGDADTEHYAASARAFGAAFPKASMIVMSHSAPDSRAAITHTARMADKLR
A general note: qHTS replaces the single test concentration by a dilution series.
Take `CN(C)c1ccc(C(=O)NC[C@H]2C[C@@H]3CCN2C[C@@H]3CN2CCCCC2)cc1`: the activity change, negative = inhibition was inactive: 2.4%.

Consider `CCC(CC)c1cc([C@H]2CN3CC[C@H]2C[C@@H]3CNC(=O)c2ccc(N(C)C)cc2)nc(-c2ccncc2)n1`, for which the activity change, negative = inhibition was inactive: 6.26% [at 38.4 µM].

Consider `COCCC(=O)N1[C@H]2CC[C@@H]1c1cnc(-c3ccccc3)nc1C2`, for which the activity change, negative = inhibition was inactive: -0.338% [at 38.4 µM].

Consider `Cc1ccccc1-c1ccc2n(c1=O)C[C@H]1C[C@@H]2CN(C(=O)NC2CCCCC2)C1`, for which the activity change, negative = inhibition was inactive: -3.66%.

For the compound `CCCCc1cn(C[C@H]2CC3CCN2C[C@@H]3C(=O)NCc2ccccc2)nn1` (stereo partly specified), the activity change, negative = inhibition was inactive: 0.377%.

Turning to `CCN(CC)C[C@H]1CN2CC[C@H]1C[C@@H]2CNC(=O)Nc1ccccc1`, the activity change, negative = inhibition is inactive: -4.49%.

Turning to `O=C(c1cncnc1)N1C[C@@H]2C[C@H](C1)c1c(-c3ccc4ccccc4c3)ccc(=O)n1C2`, the activity change, negative = inhibition is inactive: -1.1%.

Turning to `Cn1nc(-c2cccs2)cc1[C@H]1CN2CC[C@H]1C[C@@H]2CNCc1ccccn1`, the activity change, negative = inhibition was inactive: 91.4%.

For `CC(=O)c1ccc(NC(=O)NC[C@H]2C[C@@H]3CCN2C[C@@H]3c2cc(-c3ccco3)nc(C)n2)cc1`, the activity change, negative = inhibition is inactive: 8.05% [at 38.4 µM].

Turning to `CC(C)NC(=O)[C@H]1CN2CCC1C[C@@H]2Cn1cc(CN(C)Cc2ccccc2)nn1` (stereo partly specified), the activity change, negative = inhibition was inactive: 0.305%.

`CC[C@H]1CN2CC[C@H]1C[C@@H]2CNS(=O)(=O)c1ccc2ccccc2c1`: the activity change, negative = inhibition is inactive: -3.14%.

`Cc1cc(NCCc2c[nH]c(=O)[nH]c2=O)n2nccc2n1`: the activity change, negative = inhibition is inactive: 33.3% [at 38.4 µM].

On to `CNc1ncc(C(=O)N2C[C@H]3COc4ccccc4C[C@@]3(C(=O)O)C2)cn1`, for which the activity change, negative = inhibition was inactive: 0.324% [at 38.4 µM].

In the case of `COc1ccc(-c2cc([C@H]3CN4CC[C@H]3C[C@@H]4CNC(=O)C3CCC3)n(C)n2)cc1OC`, the activity change, negative = inhibition is inactive: 4.37%.

As to `CCOc1ccc(CC(=O)N2CCC3(CC2)c2nccn2-c2ccccc2CN3C)cc1`, the activity change, negative = inhibition is inactive: -1.87% [at 38.4 µM].

For the compound `CCC(CC)c1cc([C@H]2CN3CC[C@H]2C[C@@H]3CNC(=O)C2CC2)nc(-c2ccncc2)n1`, the activity change, negative = inhibition is inactive: -3.47%.

In the case of `CC[C@H]1CN2CC[C@H]1C[C@@H]2COC(=O)Nc1ccc(C(C)(C)C)cc1`, the activity change, negative = inhibition was inactive: 12.4%.

With `O=C1CO[C@H]2CN(Cc3ccncc3)C[C@H]2N1Cc1ccccc1`, the activity change, negative = inhibition is inactive: 4.58%.

On to `C#C[C@H]1CN2CC[C@H]1C[C@@H]2CNCc1ccc(C(F)(F)F)cc1`, for which the activity change, negative = inhibition was inactive: -0.0776%.

Consider `CSCC(=O)N1C[C@@H]2C[C@H](C1)c1c(-c3ccc(NC(C)=O)cc3)ccc(=O)n1C2`, for which the activity change, negative = inhibition is inactive: 4.49%.

Turning to `CN(C)c1ccc(C(=O)NC[C@H]2C[C@@H]3CCN2C[C@@H]3CN(C)c2ccccc2)cc1`, the activity change, negative = inhibition was inactive: 2.37%.

In the case of `CSCC(=O)Nc1ccc2n(c1=O)C[C@H]1C[C@@H]2CN(C(=O)COc2ccccc2)C1`, the activity change, negative = inhibition is inactive: 19.4%.

On to `COc1cc2c(cc1OCc1ccncc1)NC(=O)C21CCN(Cc2ccccc2O)CC1`, for which the activity change, negative = inhibition is inactive: 4.89% [at 38.4 µM].

Turning to `Cc1ccc(S(=O)(=O)NC[C@H]2C[C@@H]3CCN2C[C@@H]3CN2CCCCC2)cc1`, the activity change, negative = inhibition was inactive: -1.88%.

Regarding `CC(C)NC(=O)NC[C@H]1C[C@@H]2CCN1C[C@@H]2CN1CCN(c2ccccn2)CC1`, the activity change, negative = inhibition was inactive: 0.315%.

As to `O=C(Nc1nccs1)[C@H]1CN2CCC1C[C@@H]2Cn1cc(CC2CCCCC2)nn1` (stereo partly specified), the activity change, negative = inhibition is inactive: 5.28%.

For the compound `COc1ccccc1-c1cc([C@H]2CN3CC[C@H]2C[C@@H]3CNC(=O)N2CCOCC2)n(C)n1`, the activity change, negative = inhibition was inactive: -1%.

As for `O=C(NC[C@H]1C[C@@H]2CCN1C[C@@H]2CN1CCN(c2ccc(F)cc2)CC1)c1ccco1`, the activity change, negative = inhibition is inactive: -0.0973%.

In the case of `CC[C@H]1CN2CC[C@H]1C[C@@H]2CNS(=O)(=O)c1ccc(NC(C)=O)cc1`, the activity change, negative = inhibition is inactive: 36.8%.

`CCCCc1cn(C[C@H]2CC3CCN2C[C@@H]3C(=O)NCc2ccc3c(c2)OCO3)nn1` (stereo partly specified): the activity change, negative = inhibition is inactive: -4.5%.

Turning to `CCNC(=O)NC[C@H]1C[C@@H]2CCN1C[C@@H]2c1cc(-c2ccc(F)cc2)nn1C`, the activity change, negative = inhibition is inactive: -0.887%.

`Cc1nc(-c2ccc(C(F)(F)F)cc2)cc([C@H]2CN3CC[C@H]2C[C@@H]3CNC(=O)N2CCOCC2)n1`: the activity change, negative = inhibition is inactive: -1.71% [at 38.4 µM].

In the case of `Cn1nc(-c2ccccc2)cc1[C@H]1CN2CC[C@H]1C[C@@H]2CNC(=O)c1ccco1`, the activity change, negative = inhibition is inactive: 0.292%.

In the case of `CC(C)(C)c1ccc(NC(=O)OC[C@H]2C[C@@H]3CCN2C[C@@H]3c2cc(C3CCCC3)nc(-c3ccncc3)n2)cc1`, the activity change, negative = inhibition was inactive: -1.83% [at 38.4 µM].

In the case of `O=C(Cc1ccc(F)cc1Cl)N1C[C@H]2CC[C@@H]1CN(Cc1cccnc1)C2`, the activity change, negative = inhibition is inactive: -3.88% [at 38.4 µM].

`CC[C@H]1CN2CC[C@H]1C[C@@H]2CNC(=O)c1ccc(-c2ccccc2)cc1`: the activity change, negative = inhibition was inactive: 1.87%.

Regarding `C=C[C@H]1CN2CC[C@H]1C[C@@H]2CNC(=O)Nc1ccc(C(C)(C)C)cc1`, the activity change, negative = inhibition was inactive: 6.57%.

Take `CCCS(=O)(=O)Nc1ccc(=O)n2c1[C@@H]1C[C@@H](CN(C(=O)c3ccc(F)cc3)C1)C2`: the activity change, negative = inhibition is inactive: 1.26%.

For `CC(=O)N1C[C@@H]2C[C@H](C1)c1ccc(NC(=O)Nc3ccccc3)c(=O)n1C2`, the activity change, negative = inhibition was inactive: 1.97%.

As for `CCCS(=O)(=O)N1C[C@@H]2C[C@H](C1)c1ccc(-c3ccc4ccccc4c3)c(=O)n1C2`, the activity change, negative = inhibition is inactive: 1.69%.

Regarding `CCN1CCCNCC12CCOCC2`, the activity change, negative = inhibition was inactive: 49.4% [at 38.4 µM].

For `O=C(O)c1cn(Cc2ccc(F)cc2)nn1`, the activity change, negative = inhibition is inactive: 45.8% [at 38.4 µM].

In the case of `COCCNC(=O)[C@H]1CN2CCC1C[C@@H]2Cn1cc(CCO)nn1` (stereo partly specified), the activity change, negative = inhibition was inactive: 2.94%.

On to `O=C(NCc1ccc(F)cc1)[C@H]1CN2CC[C@H]1C[C@@H]2Cn1cc(C2(O)CCCC2)nn1`, for which the activity change, negative = inhibition is inactive: -0.552%.

Regarding `C=C[C@H]1CN2CC[C@H]1C[C@@H]2CNS(=O)(=O)c1cccs1`, the activity change, negative = inhibition is inactive: 31.6%.

For `CC(C)NC(=O)[C@H]1CN2CC[C@H]1C[C@@H]2Cn1cc(CO)nn1`, the activity change, negative = inhibition was inactive: 1.66%.

As for `CCNC(=O)NC[C@H]1C[C@@H]2CCN1C[C@@H]2c1cc(C2CCCCC2)nn1C`, the activity change, negative = inhibition was inactive: -0.757%.

In the case of `Cc1nc(-c2ccccc2Br)cc([C@H]2CN3CC[C@H]2C[C@@H]3CNC(=O)c2cccs2)n1`, the activity change, negative = inhibition is inactive: -1.6% [at 38.4 µM].

In the case of `C=CCN(C)C(=O)[C@H]1CN2CCC1C[C@@H]2Cn1cc(CO)nn1` (stereo partly specified), the activity change, negative = inhibition was inactive: 15%.

Turning to `O=C1N(Cc2cccnc2)C[C@H]2CN(C3CCOCC3)CCN12`, the activity change, negative = inhibition was inactive: -1.11%.

On to `Cc1nc(-c2ccco2)cc([C@H]2CN3CC[C@H]2C[C@@H]3CNC(=O)C(C)(C)C)n1`, for which the activity change, negative = inhibition is inactive: 11.4%.

For the compound `CN(CCc1ccccn1)C[C@H]1CN2CC[C@H]1C[C@@H]2CNC(=O)c1ccc(C(F)(F)F)cc1`, the activity change, negative = inhibition is inactive: 0.63% [at 38.4 µM].

Consider `CCC(CC)c1cc([C@H]2CN3CC[C@H]2C[C@@H]3CNC(=O)COc2ccccc2)nc(-c2ccncc2)n1`, for which the activity change, negative = inhibition was inactive: 1.04% [at 38.4 µM].

With `CC(=O)c1ccc(NC(=O)NC[C@H]2C[C@@H]3CCN2C[C@@H]3CN2CCC(Cc3ccccc3)CC2)cc1`, the activity change, negative = inhibition is inactive: -1.49% [at 38.4 µM].

As for `CC[C@H]1CN2CC[C@H]1C[C@@H]2CNS(=O)(=O)c1cccc(C#N)c1`, the activity change, negative = inhibition is inactive: 30.9%.

As to `COCCNC(=O)[C@H]1CN2CCC1C[C@@H]2Cn1cc(-c2ccc(-c3ccccc3)cc2)nn1` (stereo partly specified), the activity change, negative = inhibition was inactive: 2.08% [at 38.4 µM].

Consider `CN(C)Cc1ccccc1-c1ccc2n(c1=O)C[C@H]1C[C@@H]2CN(C(=O)c2cnccn2)C1`, for which the activity change, negative = inhibition is inactive: 5.24%.

For the compound `C#CCN(C)C[C@H]1CN2CC[C@H]1C[C@@H]2CNC(=O)Nc1ccc(C(C)=O)cc1`, the activity change, negative = inhibition was inactive: 7.23%.

In the case of `COc1ccc(C(=O)NC[C@H]2C[C@@H]3CCN2C[C@@H]3c2cc(-c3ccc(N(C)C)cc3)nc(C)n2)cc1`, the activity change, negative = inhibition was inactive: -3.1% [at 38.4 µM].

Regarding `C#C[C@H]1CN2CC[C@H]1C[C@@H]2CNC(=O)Nc1cccc(SC)c1`, the activity change, negative = inhibition is inactive: -2.26%.

For the compound `O=C(Cc1cccnc1)N1[C@H]2CC[C@@H]1c1cnc(-c3ccc(F)cc3)nc1C2`, the activity change, negative = inhibition is inactive: 0.941% [at 38.4 µM].
